Reference: the supplement of paper PMC4967469
IC50 is the fitted dose that halves viability relative to control wells, and lower means more sensitive; where the fit passes the top or lowest dose, that dose stands as a limit. AUC is the area under the same curve over the 256-fold range up to the top dose, as a fraction: 1 means no effect, lower means more sensitive. An inferred top dose comes from the curve model; the source does not state it.

What was measured:
[1] = compound: Nc1[nH]nc2nnc(-c3c(-c4ccccc4)nn4ccccc34)cc12 [FR-180204]; assay: Viability of human cancer cell lines after 72 h of drug (GDSC screen); conditions: top dose 20 µM; top dose inferred
Procedure: (§1)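 Human cancer cell lines in 384-well plates, medium with 10% serum, drug for 72 h over a 256-fold dose range (nine 2-fold or five 4-fold steps up to the top dose). Adherent lines were fixed and stained with the nucleic acid dye Syto60, suspension lines read with resazurin; signal relative to control wells, capped at 0 and 100%. One two-parameter sigmoid per drug and line, fitted in a mixed model over all curves with the slope shared within a line.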

[2] = compound: O=C(/C=C/c1cccnc1)NCCCCC1CCN(C(=O)c2ccccc2)CC1 [FK866]; assay: as above; conditions: top dose 1 µM; top dose inferred
Procedure: as §1

| Cell Line | AUC [1] | IC50 [1] [nM] | AUC [2] | IC50 [2] [nM] |
| --- | --- | --- | --- | --- |
| NCI-H69 (small cell lung carcinoma, suspension) | 0.984 | > 20000 | 0.149 | 4.34 |
| NCI-H187 (small cell lung carcinoma, suspension) | 0.988 | > 20000 | 0.983 | > 1000 |
| NCI-H196 (small cell lung carcinoma, adherent) | 0.988 | > 20000 | 0.935 | > 1000 |
| NCI-H209 (small cell lung carcinoma, suspension) | 0.969 | > 20000 | 0.064 | < 3.91 |
| NCI-H211 (small cell lung carcinoma, adherent) | 0.944 | > 20000 | 0.057 | < 3.91 |
| NCI-H226 (lung squamous cell carcinoma, adherent) | 0.959 | > 20000 | 0.935 | > 1000 |
| NCI-H292 (lung adenocarcinoma, adherent) | 0.868 | > 20000 | 0.274 | 12.3 |
| NCI-H322M (lung adenocarcinoma, suspension) | 0.979 | > 20000 | 0.283 | 12.9 |
| NCI-H345 (small cell lung carcinoma, suspension) | 0.988 | > 20000 | 0.532 | 76.7 |
| NCI-H358 (lung adenocarcinoma, adherent) | 0.902 | > 20000 | 0.887 | > 1000 |
| NCI-H441 (lung adenocarcinoma, adherent) | 0.978 | > 20000 | 0.833 | > 1000 |
| NCI-H446 (small cell lung carcinoma, semi-adherent) | 0.982 | > 20000 | 0.046 | < 3.91 |
| NCI-H460 (large cell lung carcinoma, adherent) | 0.988 | > 20000 | 0.377 | 29.8 |
| NCI-H520 (lung squamous cell carcinoma, adherent) | 0.974 | > 20000 | 0.461 | 48.6 |
| NCI-H522 (lung adenocarcinoma, adherent) | 0.953 | > 20000 | 0.753 | 391 |
| NCI-H524 (small cell lung carcinoma, suspension) | 0.991 | > 20000 | 0.023 | < 3.91 |
| NCI-H526 (small cell lung carcinoma, suspension) | 0.979 | > 20000 | 0.232 | 10.9 |
| NCI-H596 (lung adenocarcinoma, adherent) | 0.981 | > 20000 | 0.549 | 88.6 |
| NCI-H630 (large intestine, adherent) | 0.964 | > 20000 | 0.877 | > 1000 |
| NCI-H650 (lung adenocarcinoma, adherent) | 0.981 | > 20000 | 0.978 | > 1000 |
| NCI-H661 (large cell lung carcinoma, adherent) | 0.972 | > 20000 | 0.627 | 151 |

| Cell Line | AUC [1] | IC50 [1] [nM] | AUC [2] | IC50 [2] [nM] |
| --- | --- | --- | --- | --- |
| NCI-H716 (large intestine, suspension) | 0.972 | > 20000 | 0.091 | < 3.91 |
| NCI-H720 (lung carcinoid, suspension) | 0.987 | > 20000 | 0.153 | 6.09 |
| NCI-H727 (lung carcinoid, adherent) | 0.949 | > 20000 | 0.947 | > 1000 |
| NCI-H747 (large intestine, adherent) | 0.934 | > 20000 | 0.588 | 115 |
| NCI-H810 (large cell lung carcinoma, adherent) | 0.958 | > 20000 | 0.05 | < 3.91 |
| NCI-H838 (lung adenocarcinoma, adherent) | 0.983 | > 20000 | 0.131 | 3.94 |
| NCI-H841 (small cell lung carcinoma, adherent) | 0.983 | > 20000 | 0.836 | 665 |
| NCI-H847 (small cell lung carcinoma, adherent) | 0.974 | > 20000 | 0.992 | > 1000 |
| NCI-H1048 (small cell lung carcinoma, adherent) | 0.945 | > 20000 | 0.162 | 6.72 |
| NCI-H1092 (small cell lung carcinoma, suspension) | 0.977 | > 20000 | 0.141 | 4.62 |
| NCI-H1155 (large cell lung carcinoma, suspension) | 0.993 | > 20000 | 0.021 | < 3.91 |
| NCI-H1299 (large cell lung carcinoma, adherent) | 0.932 | > 20000 | 0.81 | 681 |
| NCI-H1304 (small cell lung carcinoma, suspension) | 0.985 | > 20000 | 0.96 | > 1000 |
| NCI-H1355 (lung adenocarcinoma, adherent) | 0.977 | > 20000 | 0.546 | 88.4 |
| NCI-H1395 (lung adenocarcinoma, adherent) | 0.979 | > 20000 | 0.847 | > 1000 |
| NCI-H1417 (small cell lung carcinoma, suspension) | 0.972 | > 20000 | 0.108 | < 3.91 |
| NCI-H1435 (lung adenocarcinoma, semi-adherent) | 0.992 | > 20000 | 0.481 | 55.9 |
| NCI-H1436 (small cell lung carcinoma, suspension) | 0.969 | > 20000 | 0.06 | < 3.91 |
| NCI-H1437 (lung adenocarcinoma, adherent) | 0.984 | > 20000 | 0.697 | 230 |
| NCI-H1563 (lung adenocarcinoma, adherent) | 0.947 | > 20000 | 0.964 | > 1000 |
| NCI-H1568 (lung adenocarcinoma, adherent) | 0.958 | > 20000 | 0.841 | 967 |

| Cell Line | AUC [1] | IC50 [1] [nM] | AUC [2] | IC50 [2] [nM] |
| --- | --- | --- | --- | --- |
| NCI-H1573 (lung adenocarcinoma, adherent) | 0.983 | > 20000 | 0.966 | > 1000 |
| NCI-H1581 (large cell lung carcinoma, semi-adherent) | 0.986 | > 20000 | 0.299 | 18 |
| NCI-H1623 (lung adenocarcinoma, adherent) | 0.969 | > 20000 | 0.962 | > 1000 |
| NCI-H1648 (lung adenocarcinoma, adherent) | 0.973 | > 20000 | 0.956 | > 1000 |
| NCI-H1651 (lung adenocarcinoma, adherent) | 0.982 | > 20000 | 0.805 | 554 |
| NCI-H1666 (lung adenocarcinoma, semi-adherent) | 0.976 | > 20000 | 0.899 | > 1000 |
| NCI-H1688 (small cell lung carcinoma, adherent) | 0.903 | > 20000 | 0.839 | 786 |
| NCI-H1693 (lung adenocarcinoma, adherent) | 0.888 | > 20000 | 0.694 | 308 |
| NCI-H1694 (small cell lung carcinoma, suspension) | 0.983 | > 20000 | 0.181 | 6.9 |
| NCI-H1703 (lung adenocarcinoma, adherent) | 0.981 | > 20000 | 0.735 | 344 |
| NCI-H1755 (lung adenocarcinoma, adherent) | 0.965 | > 20000 | 0.783 | 494 |
| NCI-H1770 (non-small cell lung carcinoma, suspension) | 0.946 | > 20000 | 0.171 | 7.53 |
| NCI-H1781 (lung adenocarcinoma, adherent) | 0.983 | > 20000 | 0.982 | > 1000 |
| NCI-H1792 (lung adenocarcinoma, adherent) | 0.981 | > 20000 | 0.19 | 8.41 |
| NCI-H1793 (lung adenocarcinoma, adherent) | 0.981 | > 20000 | 0.914 | > 1000 |
| NCI-H1836 (small cell lung carcinoma, suspension) | 0.98 | > 20000 | 0.742 | 335 |
| NCI-H1838 (lung adenocarcinoma, adherent) | 0.969 | > 20000 | 0.848 | > 1000 |
| NCI-H1869 (lung squamous cell carcinoma, adherent) | 0.964 | > 20000 | 0.681 | 216 |
| NCI-H1876 (small cell lung carcinoma, adherent) | 0.961 | > 20000 | 0.042 | < 3.91 |
| NCI-H1915 (large cell lung carcinoma, adherent) | 0.987 | > 20000 | 0.406 | 34.3 |
